According to patent US7550150B2, “Methods of treating or preventing a disease, disorder or condition associated with a viral infection” (Barros Research Institute, priority 2005, dated 2009):
Read-outs that look alike come from different tables or passages of the source.

Columns and labels:
[1] = mouse, in vivo, ip
[2] = mouse, in vivo, ip, 75 mg/kg/day
[3] = mouse, in vivo, ip, 75 mg/kg/day; remark: listed apart in the source
[4] = mouse, in vivo, ip, 75 mg/kg/day; remark: listed apart in the source
[5] = mouse, in vivo, ip, 75 mg/kg/day; remark: listed apart in the source

NC(=O)c1ncn([C@@H]2O[C@H](CO)[C@@H](O)[C@H]2O)n1 [Ribavirin]
Tox Controls Mean Host Weight Change [1]: -0.9 g | Tox Controls Mean Host Weight Change [2]: -0.7 g | Tox Controls Mean Host Weight Change [3]: 2.4 g | Tox Controls Mean Host Weight Change [4]: -0.8 g | Tox Controls Mean Host Weight Change [5]: 0.6 g
